# Laboratory results reported in the supplement of paper PMC12355420.
# Where a name gives a salt, the structure may show the parent alone. The list shows a part of the results. Many values rest on one well or one pass, so single values are uncertain.
# Tested on: HeLa VPS33A reporter cells
# Test: relative cell viability (CellMask signal) vs DMSO (fraction of DMSO); HeLa model of a glycosaminoglycan (GAG) storage disease; KI is knock-in and KO knock-out; SDC1 is syndecan 1; higher = less cytotoxic
# Settings: 50 µM; 24 h
# 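Also: primary screen of an FDA-approved drug library in HeLa reporter cells in 96-well format, CellMask signal normalized to DMSO-treated wells set as 1, under 0.5 deemed highly cytotoxic.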
row,SMILES,relative cell viability
1,C=C[C@@H]1C[C@]1(NC(=O)[C@@H]1C[C@@H](Oc2ncc(OC)c3ccc(Cl)cc23)CN1C(=O)[C@@H](NC(=O)OC(C)(C)C)C(C)(C)C)C(=O)NS(=O)(=O)C1CC1,0.00633
2,CCN(CC)CCNC(=O)c1c(C)[nH]c(/C=C2\C(=O)Nc3ccc(F)cc32)c1C [Sunitinib],0.00707
3,"CN1CCN(c2ccc3nc(-c4c(N)c5c(F)cccc5[nH]c4=O)[nH]c3c2)CC1 [Dovitinib (TKI-258, CHIR-258)]",0.00956
4,CC1=C(/C=C/C(C)=C/C=C/C(C)=C\C(=O)O)C(C)(C)CCC1 [Isotretinoin],0.304
5,COc1cc(Nc2ncc(F)c(Nc3ccc4c(n3)N(COP(=O)(O)O)C(=O)C(C)(C)O4)n2)cc(OC)c1OC [R788 disodium],0.201
6,CNCCCN1c2ccccc2CCc2ccccc21 [Desipramine hydrochloride],0.0184
7,CN1CCN(CCCN2c3ccccc3Sc3ccc(C(F)(F)F)cc32)CC1 [Trifluoperazine 2HCl],0.00599
8,C[C@H]1[C@@H](O)O[C@@H]2O[C@@]3(C)CC[C@H]4[C@H](C)CC[C@@H]1[C@@]24OO3 [Dihydroartemisinin],0.00735
9,C=C1C(=O)O[C@@H]2C=C(C)CCC=C(C)CC[C@@H]12 [Costundide*],0.00409
10,Nc1ncn([C@@H]2O[C@H](CO)[C@@H](O)[C@H]2O)c(=O)n1 [5-Azacytidine],0.0217
11,CCCCOc1ccc(C(=O)CCN2CCCCC2)cc1 [Dyclonine HCl],0.0238
12,N#Cc1cc(-c2n[nH]c(-c3ccncc3)n2)ccn1 [Topiroxostat],0.00463
13,OC1(c2ccc(Cl)c(C(F)(F)F)c2)CCN(CCCC(c2ccc(F)cc2)c2ccc(F)cc2)CC1 [Penfluridol],0.00434
14,CO[C@@H]1[C@H](OC(=O)/C=C/C=C/C=C/C=C/C(=O)O)CC[C@]2(CO2)[C@H]1[C@@]1(C)O[C@@H]1CC=C(C)C [Fumagillin],0.0241
15,COC(=O)[C@H]1[C@H]2C[C@@H]3c4[nH]c5cc(OC)ccc5c4CCN3C[C@H]2C[C@@H](OC(=O)c2cc(OC)c(OC)c(OC)c2)[C@@H]1OC [Reserpine hydrochloride],0.00703
16,C#C[C@]1(O)CC[C@H]2[C@@H]3CCC4=CCCC[C@@H]4[C@H]3C(=C)C[C@@]21CC [Desogestrel],0.00563
17,CCCCCCCCc1ccc(CCC(N)(CO)CO)cc1 [Fingolimod (FTY720)],0.00612
18,N#CC[C@H](C1CCCC1)n1cc(-c2ncnc3[nH]ccc23)cn1,0.0178
19,CCCCc1nc2cc(/C=C/C(=O)NO)ccc2n1CCN(CC)CC [Pracinostat (SB939)],0.381
20,CC(C)C[C@H](NC(=O)CNC(=O)c1cc(Cl)ccc1Cl)B(O)O,0.0196
21,COc1ccc(C[C@@H]2c3cc(OC)c(OC)cc3CC[N@+]2(C)CCC(=O)OCCCCCOC(=O)CC[N@@+]2(C)CCc3cc(OC)c(OC)cc3[C@H]2Cc2ccc(OC)c(OC)c2)cc1OC [Cisatracurium Besylate],0.00677
22,CC[C@H](C)[C@H](N)C1=N[C@H](C(=O)N[C@@H](CC(C)C)C(=O)N[C@H](CCC(=O)[O-])C(=O)N[C@H](C(=O)N[C@H]2CCCCNC(=O)[C@H](CC(N)=O)NC(=O)[C@@H](CC(=O)[O-])NC(=O)[C@H](Cc3cnc[nH]3)NC(=O)[C@@H](Cc3ccccc3)NC(=O)[C@H]([C@@H](C)CC)NC(=O)[C@@H](CCCN)NC2=O)[C@@H](C)CC)CS1.[Zn+2] [Bacitracin Zinc],0.0117
23,C=C1/C(=C\C=C2/CCC[C@]3(C)[C@@H]([C@H](C)CCCC(C)C)CC[C@@H]23)C[C@@H](O)C[C@@H]1O [Alfacalcidol],0.00503
24,CCOc1cc2ncc(C#N)c(Nc3ccc(OCc4ccccn4)c(Cl)c3)c2cc1NC(=O)/C=C/CN(C)C [Neratinib (HKI-272)],0.0104
25,O=C(/C=C/c1cccc(S(=O)(=O)Nc2ccccc2)c1)NO [Belinostat (PXD101)],0.0185
26,COC(=O)Nc1nc2cc(C(=O)c3ccc(F)cc3)ccc2[nH]1 [Flubendazole],0.118
27,C[n+]1cc2c3c(ccc2c2ccc4cc5c(cc4c21)OCO5)OCO3 [Sanguinarine],0.00728
28,CN1CC2c3ccccc3Oc3ccc(Cl)cc3C2C1 (centres undefined) [Asenapine],0.00415
29,C=C1CC[C@H]2C(=C)CC[C@H]3C(=C)C(=O)O[C@@H]3[C@@H]12 [Dehydrocostus Lactone],0.00388
